Out of some 150,000 compounds screened, about 540 (0.36%) showed an effect of 50% or more. Some of the results follow.

The values that follow come from ChEMBL document CHEMBL4888484, “Replenishing the malaria drug discovery pipeline: Screening and hit evaluation of the MMV Hit Generation Library 1 (HGL1) against asexual blood stage Plasmodium falciparum ,using a nano luciferase reporter read-out” (2022).

The subject of this assay is Plasmodium falciparum. The experiment in a line: Primary screen in NF54 nanoGlo assay, in single point, at 2uM, 72h; a lower Z score goes with more inhibition. The assay is classed as functional, Erythrocyte. The settings on record: timepoint 72 hour.
The % Inhibition is the change of the read-out against control, counted positive when it falls. Take `CS(=O)(=O)NC1(c2ccc(F)cc2)CC1`: the “% Inhibition” value is on record as -11% and the Z score stood at 2.11.

With `CCN(CC)c1ccc(C(=O)NC(c2ccccc2)c2ccccc2)cc1`, the “% Inhibition” value is -2% and the Z score is 0.22.

Turning to `CCN(Cc1cc(=O)c2cc(C)cc(C)c2[nH]1)[C@H]1CCS(=O)(=O)C1`, the “% Inhibition” value is recorded as -16% and the Z score worked out at 3.14.

As to `Cc1cc(C(=O)N2CCC(=C3CCC3)CC2)nn1C`, the “% Inhibition” value is recorded as -24% and the Z score was determined as 3.68.

For `CCCN1CCN(C(=O)c2c(C)nn(CC)c2C)[C@H]2CS(=O)(=O)C[C@H]21`, the “% Inhibition” value is reported as -6% and the Z score was 0.82.

`CC1(C)CC(NC(=O)N[C@@H](Cc2ccc(O)cc2)C(N)=O)CC(C)(C)C1`: the “% Inhibition” value amounted to 1% and the Z score was -0.17.

With `O=c1[nH]cnc2c1c(-c1ccccc1)c(-c1ccccc1)n2C[C@H]1CCCO1`, the “% Inhibition” value is listed as -2% and the Z score came to 0.2.

With `COc1ccc(Cl)cc1-c1c(N2CCCC2)cn[nH]c1=O`, the “% Inhibition” value was determined as 1% and the Z score is -0.09.

Turning to `COc1ccnc(N(C)CC2CCN(CCO)CC2)n1`, the “% Inhibition” value stood at 4% and the Z score is -0.35.

In the case of `COCC(=O)N(CCN1CCOCC1)CC(=O)N1N=C(c2ccc(OC)cc2)C[C@H]1c1ccc2c(c1)OCO2`, the “% Inhibition” value is listed as -13% and the Z score is on record as 1.78.

`O=C(NC[C@@]1(COc2cccnc2)C[C@@H](O)[C@@H](O)C1)C1CCOCC1`: the “% Inhibition” value is -10% and the Z score stood at 1.98.

For the compound `C=CCNc1nc2cc3c(cc2nc1NS(=O)(=O)c1ccccc1)OCCO3`, the “% Inhibition” value is given as -2% and the Z score was 0.38.

Turning to `COc1ccc(N2CCN(C(=O)CCc3c(C)nn4cnnc4c3C)CC2)cc1`, the “% Inhibition” value is given as -14% and the Z score was determined as 1.45.

With `CCc1noc(C)c1Cn1cnc(C(C)(C)C)n1`, the “% Inhibition” value is on record as -6% and the Z score was determined as 0.83.

As for `Cc1ccc(CNC2=NCCCNC23CCCCC3)cc1`, the “% Inhibition” value worked out at 7% and the Z score is reported as -0.96.

Take `C=CCNC(=O)c1cccn(-c2ccc(NC(=O)c3ccc(F)cc3)cc2)c1=O`: the “% Inhibition” value is listed as -11% and the Z score is recorded as 1.45.

Take `NC(=O)OCCOC(=O)c1ccc(Cl)cc1F`: the “% Inhibition” value is on record as -3% and the Z score was found to be 0.53.

On to `Cc1ccc(S(=O)(=O)Nc2nc(-c3ccccc3)cc(-c3cc(Cl)ccc3O)n2)cc1`, for which the “% Inhibition” value was -24% and the Z score stood at 2.77.

On to `CN(Cc1cc(C2CC2)on1)C(=O)NCCC1=CC[C@H]2C[C@@H]1C2(C)C`, for which the “% Inhibition” value is -19% and the Z score was found to be 3.26.

As to `COCCN(Cc1ccc(C)s1)C(=O)N[C@@H](C)Cc1ccccn1`, the “% Inhibition” value is given as 0% and the Z score was 0.08.

As to `CCONC(=O)N[C@@H](C1CCCC1)C(F)(F)F`, the “% Inhibition” value worked out at 9% and the Z score was -1.27.

On to `O=C(Nc1cccc(-n2cnnc2)c1)C(=O)N[C@H](CO)Cc1ccccc1`, for which the “% Inhibition” value is reported as -5% and the Z score amounted to 0.79.

As to `C[C@H](NC(=O)c1cccn1C)c1n[nH]c(=O)n1C`, the “% Inhibition” value is recorded as 4% and the Z score is on record as -0.83.
